Assay results taken from patent publication US11999737B2, “Kinase inhibitors and related methods of use” (Duke University, priority 2014, dated 2024).

What was measured:
[1] = molecular target: EGFR-TK (Homo sapiens, UniProt P00533); assay: 33P-ATP filter-binding kinase assay (kinome profile); format: biochemical; settings: 10 μM HS38
[2] = molecular target: Abl kinase (Homo sapiens, UniProt P00519); assay: as above; format: biochemical; settings: 10 μM HS38
[3] = test system: intact RTA strips; assay: KCl and Ang II-dependent contraction of isolated RTA; set-up: species or system rat; settings: HS-38 50 μM, n=1
Method: (§1) A, intact RTA strips were stimulated to contract with exposure to high-extracellular K+ solution (KCl) or Ang II (10 μM) in normal HEPES extracellular solution. Experiments were also performed with addition of the ZIPK inhibitor (HS-38, 50 μM). There are major differences in the sensitivity of RTA to contractile agonists. In this case, Ang II elicits a slower and weaker response than KCl. The addition of HS-38 decreased maximal force generated by either stimulus. […] Vessels were flash-frozen at the peak of contraction, and LC20 phosphorylation was assessed with PhosTag gels. […] C, data are n=1 for RTA vessels from Sprague-Dawley rats.
as §1, with “Intact” for “A, intact”, “gels (B).” for “gels.”, “Data” for “C, data”

[4] = test system: LC20 diphosphorylation (T18/S19); assay: LC20 diphosphorylation in human coronary artery smooth muscle cells; format: cell-based; settings: HS-38 10 μM, 40 min; serum-free and 2-min 5% FBS; p<0.01
Method: (§2) Cells were serum-starved overnight, incubated for 40 min with HS-38 (10 μM) or vehicle and treated (or not) with 5% FBS for 2 min prior to lysis in SDS-gel sample buffer for SDS-PAGE and western blotting with anti-diphospho(T18/S19)-LC20, anti-phosphoT855-MYPT1 or anti-phosphoT155-Par-4. Phosphorylated bands were quantified by scanning densitometry and normalized to the loading control (SM22). Phosphorylation levels in the presence of HS-38 are expressed as a percentage of control (absence of ZIPK inhibitor). Values represent means±S.E.M. (n values are indicated in parentheses).
as §2, with “Human coronary artery smooth muscle cells (hCA-VSMC)” for “Cells”, “fetal bovine serum (FBS)” for “FBS”, “anti-2P-LC20, anti-pT855-MYPT1” for “anti-diphospho(T18/S19)-LC20, anti-phosphoT855-MYPT1”, “anti-pPar-4.” for “anti-phosphoT155-Par-4.”, “(SM22 or GAPDH).” for “(SM22).”, “parentheses). The hCA-VSMC (#CC-2583) cells were from Lonza Inc. Cells were grown to passage 1.” for “parentheses).”

[5] = molecular target: GFP-ZIPK (Homo sapiens, UniProt O43293); assay: FLECS elution of GFP-ZIPK from γ-linked ATP Sepharose media; format: binding
[6] = test system: Par-4-T155 phosphorylation; assay: Par-4-T155 phosphorylation in human coronary artery smooth muscle cells; format: cell-based; settings: HS-38 10 μM, 40 min; serum-free or 2-min 5% FBS
Method: as §2
as §2, with “Human coronary artery smooth muscle cells (hCA-VSMC)” for “Cells”, “fetal bovine serum (FBS)” for “FBS”, “anti-2P-LC20, anti-pT855-MYPT1” for “anti-diphospho(T18/S19)-LC20, anti-phosphoT855-MYPT1”, “anti-pPar-4.” for “anti-phosphoT155-Par-4.”, “(SM22 or GAPDH).” for “(SM22).”, “parentheses). The hCA-VSMC (#CC-2583) cells were from Lonza Inc. Cells were grown to passage 1.” for “parentheses).”

[7] = test system: LC20, Par-4, MYPT1 phosphorylation; set-up: species or system rat
[8] = molecular target: smMLCK (Homo sapiens, UniProt Q15746); assay: 33P-ATP filter-binding kinase assay
[9] = test system: rabbit ileum smooth muscle
[10] = molecular target: PIM3 (Homo sapiens, UniProt Q86V86); assay: 33P-ATP filter-binding kinase assay
[11] = molecular target: PIM2 (Homo sapiens, UniProt Q9P1W9); assay: 33P-ATP filter-binding kinase assay
[12] = molecular target: PIM1 (Homo sapiens, UniProt P11309); assay: 33P-ATP filter-binding kinase assay
[13] = test system: MYPT1-T855 phosphorylation; assay: MYPT1-T855 phosphorylation in human coronary artery smooth muscle cells; format: cell-based; settings: HS-38 10 μM, 40 min; serum-free or 2-min 5% FBS
Method: as §2
as §2, with “Human coronary artery smooth muscle cells (hCA-VSMC)” for “Cells”, “fetal bovine serum (FBS)” for “FBS”, “anti-2P-LC20, anti-pT855-MYPT1” for “anti-diphospho(T18/S19)-LC20, anti-phosphoT855-MYPT1”, “anti-pPar-4.” for “anti-phosphoT155-Par-4.”, “(SM22 or GAPDH).” for “(SM22).”, “parentheses). The hCA-VSMC (#CC-2583) cells were from Lonza Inc. Cells were grown to passage 1.” for “parentheses).”

[14] = molecular target: DAPK1 (Homo sapiens, UniProt P53355); assay: 33P-ATP filter-binding kinase assay
[15] = test system: rat ileal longitudinal smooth muscle; assay: Calyculin A-induced contractile force of isolated rat ileal smooth muscle; settings: normalized to carbachol
Method: (§3) The data are isometric contractile responses of ileal longitudinal smooth muscle isolated from male Sprague-Dawley rats. Forces generated during calyculin A (10 μM) administration were measured, and data are expressed as the absolute force found for HS-38 treatments normalized to an initial contraction with carbachol (% CCh). HS-38 was provided 30 min prior to the addition of calyculin A.
as §3, with “with HS-84 treatment” for “for HS-38 treatments”
Small intestine (ileum) was removed from male Sprague-Dawley rats anesthetized and euthanized according to protocols approved by the University of Calgary Animal Care and Use Committee. Ileal smooth muscle sheets were dissected and cut into longitudinal smooth muscle strips (250 μm×2 mm). For force measurement muscle strips were tied with silk monofilaments to the tips of two fine wires. One wire was fixed, and the other was connected to a force transducer (SensoNor, AE801). The strip was mounted in a well on a stir plate to allow rapid solution exchange. […]

[16] = molecular target: PIM3-GFP (Homo sapiens, UniProt Q86V86); assay: FLECS elution of PIM3-GFP from γ-linked ATP Sepharose media; format: binding; settings: titration from ATP Sepharose; calculated from EC50; read-out: apparent Kd, elution of PIM3-GFP
[17] = read-out: % Activity (10 μM HS38)

Chain of UniProt P11309 (P11309 whole entry): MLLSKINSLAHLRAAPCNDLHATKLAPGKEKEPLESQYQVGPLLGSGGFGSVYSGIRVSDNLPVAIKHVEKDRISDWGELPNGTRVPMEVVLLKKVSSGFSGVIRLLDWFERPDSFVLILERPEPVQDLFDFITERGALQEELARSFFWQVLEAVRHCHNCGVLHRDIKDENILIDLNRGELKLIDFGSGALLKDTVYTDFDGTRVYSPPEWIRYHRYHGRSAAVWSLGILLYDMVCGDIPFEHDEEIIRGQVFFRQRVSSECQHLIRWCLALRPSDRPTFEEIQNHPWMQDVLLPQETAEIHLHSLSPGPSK
Chain of UniProt Q15746 (Q15746 whole entry): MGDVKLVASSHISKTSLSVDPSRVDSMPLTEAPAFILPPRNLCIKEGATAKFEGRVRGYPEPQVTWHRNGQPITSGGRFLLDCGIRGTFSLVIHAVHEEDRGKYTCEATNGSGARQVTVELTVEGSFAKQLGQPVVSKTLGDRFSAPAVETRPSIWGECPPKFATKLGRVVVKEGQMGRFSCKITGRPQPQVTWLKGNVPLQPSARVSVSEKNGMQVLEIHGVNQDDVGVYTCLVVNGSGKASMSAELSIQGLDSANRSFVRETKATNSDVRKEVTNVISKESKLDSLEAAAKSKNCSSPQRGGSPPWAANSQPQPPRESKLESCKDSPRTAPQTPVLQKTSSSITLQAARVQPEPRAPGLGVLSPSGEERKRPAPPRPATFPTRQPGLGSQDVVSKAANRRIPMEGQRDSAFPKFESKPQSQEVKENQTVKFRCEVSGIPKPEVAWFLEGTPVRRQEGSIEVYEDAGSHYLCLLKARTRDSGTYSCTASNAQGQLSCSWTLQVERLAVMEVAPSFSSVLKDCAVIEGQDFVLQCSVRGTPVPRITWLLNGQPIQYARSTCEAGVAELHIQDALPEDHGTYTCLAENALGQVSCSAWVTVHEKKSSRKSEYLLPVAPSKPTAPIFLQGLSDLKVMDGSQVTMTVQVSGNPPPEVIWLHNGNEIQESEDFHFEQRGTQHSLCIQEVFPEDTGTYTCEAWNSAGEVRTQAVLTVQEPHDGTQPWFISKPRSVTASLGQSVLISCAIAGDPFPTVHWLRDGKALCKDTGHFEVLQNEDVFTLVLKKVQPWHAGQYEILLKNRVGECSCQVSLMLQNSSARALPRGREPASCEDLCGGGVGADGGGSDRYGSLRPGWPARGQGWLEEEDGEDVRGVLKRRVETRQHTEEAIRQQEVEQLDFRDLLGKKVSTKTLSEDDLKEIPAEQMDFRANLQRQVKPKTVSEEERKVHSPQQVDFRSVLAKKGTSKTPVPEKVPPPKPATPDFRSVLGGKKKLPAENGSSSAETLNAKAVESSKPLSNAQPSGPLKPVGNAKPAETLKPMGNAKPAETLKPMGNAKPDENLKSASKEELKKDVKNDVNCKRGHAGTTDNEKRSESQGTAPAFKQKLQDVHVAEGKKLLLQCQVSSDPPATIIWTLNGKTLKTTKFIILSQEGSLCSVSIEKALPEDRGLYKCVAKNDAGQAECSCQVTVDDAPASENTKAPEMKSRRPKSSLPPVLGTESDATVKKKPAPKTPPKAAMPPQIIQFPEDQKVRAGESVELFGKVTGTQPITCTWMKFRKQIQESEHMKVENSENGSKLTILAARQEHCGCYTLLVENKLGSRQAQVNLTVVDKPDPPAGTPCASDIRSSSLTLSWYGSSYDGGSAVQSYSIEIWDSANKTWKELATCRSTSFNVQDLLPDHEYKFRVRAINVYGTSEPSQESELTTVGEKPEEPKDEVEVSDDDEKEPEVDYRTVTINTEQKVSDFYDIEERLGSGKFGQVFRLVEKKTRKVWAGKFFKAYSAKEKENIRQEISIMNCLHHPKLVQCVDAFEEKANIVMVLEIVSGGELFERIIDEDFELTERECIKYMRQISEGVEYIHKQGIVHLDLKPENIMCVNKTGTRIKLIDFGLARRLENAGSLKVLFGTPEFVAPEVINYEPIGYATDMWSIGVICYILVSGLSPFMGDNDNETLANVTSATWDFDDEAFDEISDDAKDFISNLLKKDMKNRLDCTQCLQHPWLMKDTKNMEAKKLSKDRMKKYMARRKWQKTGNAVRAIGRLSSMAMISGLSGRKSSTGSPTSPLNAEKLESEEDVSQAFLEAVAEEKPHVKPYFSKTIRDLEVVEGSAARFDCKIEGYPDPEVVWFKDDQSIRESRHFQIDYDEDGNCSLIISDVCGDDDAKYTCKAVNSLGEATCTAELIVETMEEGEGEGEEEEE
Chain of UniProt Q9P1W9 (Q9P1W9 whole entry): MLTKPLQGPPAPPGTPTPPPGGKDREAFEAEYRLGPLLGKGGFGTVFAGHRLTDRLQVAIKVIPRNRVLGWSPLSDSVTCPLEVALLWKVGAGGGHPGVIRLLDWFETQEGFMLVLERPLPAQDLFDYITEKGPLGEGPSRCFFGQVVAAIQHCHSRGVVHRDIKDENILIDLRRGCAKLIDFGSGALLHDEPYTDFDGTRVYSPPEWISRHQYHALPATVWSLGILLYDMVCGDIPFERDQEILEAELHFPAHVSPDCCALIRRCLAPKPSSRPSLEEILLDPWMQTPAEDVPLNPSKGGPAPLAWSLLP
Chain of UniProt P53355 (P53355 whole entry): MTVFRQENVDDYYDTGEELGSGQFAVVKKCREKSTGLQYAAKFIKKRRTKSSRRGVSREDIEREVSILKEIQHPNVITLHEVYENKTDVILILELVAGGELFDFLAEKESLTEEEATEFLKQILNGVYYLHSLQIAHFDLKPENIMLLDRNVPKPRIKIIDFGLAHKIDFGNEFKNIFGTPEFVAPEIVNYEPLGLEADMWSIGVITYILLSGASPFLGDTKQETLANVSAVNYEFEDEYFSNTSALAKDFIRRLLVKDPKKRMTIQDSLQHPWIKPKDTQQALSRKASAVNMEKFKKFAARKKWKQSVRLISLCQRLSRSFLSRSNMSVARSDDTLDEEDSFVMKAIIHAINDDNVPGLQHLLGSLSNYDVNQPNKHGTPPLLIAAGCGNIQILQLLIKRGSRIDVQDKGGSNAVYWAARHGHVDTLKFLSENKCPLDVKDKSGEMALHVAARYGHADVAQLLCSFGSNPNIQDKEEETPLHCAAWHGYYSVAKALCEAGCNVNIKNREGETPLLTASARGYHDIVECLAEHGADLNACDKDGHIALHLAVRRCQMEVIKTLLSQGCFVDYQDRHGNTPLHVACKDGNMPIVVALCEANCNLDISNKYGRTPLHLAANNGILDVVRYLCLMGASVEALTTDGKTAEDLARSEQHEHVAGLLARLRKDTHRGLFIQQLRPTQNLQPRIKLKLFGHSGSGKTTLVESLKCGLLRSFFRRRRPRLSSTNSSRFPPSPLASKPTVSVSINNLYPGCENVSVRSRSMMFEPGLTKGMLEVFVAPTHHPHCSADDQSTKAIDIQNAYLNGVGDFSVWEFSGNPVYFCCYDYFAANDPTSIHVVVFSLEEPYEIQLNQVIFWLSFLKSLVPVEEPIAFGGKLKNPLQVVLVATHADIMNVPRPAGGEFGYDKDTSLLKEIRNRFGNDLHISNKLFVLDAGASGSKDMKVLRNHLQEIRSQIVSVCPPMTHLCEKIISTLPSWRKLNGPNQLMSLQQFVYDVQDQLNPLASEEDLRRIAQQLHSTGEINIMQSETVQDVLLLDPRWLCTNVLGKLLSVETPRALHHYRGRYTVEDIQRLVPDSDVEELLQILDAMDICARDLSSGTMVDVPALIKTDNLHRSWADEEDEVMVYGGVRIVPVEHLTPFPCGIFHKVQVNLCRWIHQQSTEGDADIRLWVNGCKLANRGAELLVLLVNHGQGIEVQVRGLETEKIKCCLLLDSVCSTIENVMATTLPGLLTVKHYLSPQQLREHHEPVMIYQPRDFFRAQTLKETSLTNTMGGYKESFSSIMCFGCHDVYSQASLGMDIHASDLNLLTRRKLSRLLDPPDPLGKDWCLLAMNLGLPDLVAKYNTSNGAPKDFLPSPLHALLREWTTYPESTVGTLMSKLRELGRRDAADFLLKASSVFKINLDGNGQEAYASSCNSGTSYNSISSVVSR
Chain of UniProt O43293 (O43293 whole entry): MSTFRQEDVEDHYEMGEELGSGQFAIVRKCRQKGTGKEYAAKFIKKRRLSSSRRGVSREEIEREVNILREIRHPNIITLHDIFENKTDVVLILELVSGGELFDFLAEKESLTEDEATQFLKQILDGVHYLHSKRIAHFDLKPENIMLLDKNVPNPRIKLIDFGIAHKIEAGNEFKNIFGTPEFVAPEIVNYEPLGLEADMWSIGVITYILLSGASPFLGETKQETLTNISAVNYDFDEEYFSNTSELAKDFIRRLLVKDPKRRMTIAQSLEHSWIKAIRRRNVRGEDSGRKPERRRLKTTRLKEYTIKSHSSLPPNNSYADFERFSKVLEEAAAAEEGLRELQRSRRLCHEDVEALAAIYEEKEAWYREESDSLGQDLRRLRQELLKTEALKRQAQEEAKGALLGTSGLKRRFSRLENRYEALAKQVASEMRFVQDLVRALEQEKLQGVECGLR

SMILES: CC(Sc1nc2c(cnn2-c2cccc(Cl)c2)c(=O)[nH]1)C(N)=O (stereo not shown) [HS38]
- inhibition at 10 µM [1]: 41%
- inhibition at 10 µM [2]: 0%
- Ang II-dependent contraction ([3]; Ang II 10 μM): completely inhibited
- KCl stimulated contraction, tonic versus phasic [3]: greater effect on the sustained, tonic contraction
- maximal force generated by KCl or Ang II [3]: decreased
- LC20 diphosphorylation [4]: significant reduction
- increase in fluorescence above background on elution of GFP-ZIPK ([5]; drug candidate screen): > 4 fold
- elution of GFP-ZIPK confirmed by western blot analysis ([5]; screen hits): most potent
- Kd ([5]; titration from ATP Sepharose, calculated from EC50, read-out: apparent Kd, elution of GFP-ZIPK): 198 nM
- Par-4-T155 phosphorylation [6]: no significant effect
- phosphorylation levels of LC20, Par-4 and MYPT1 (Thr-697, Thr-855) [7]: unaltered
- fold less potent than against DAPK1 and PIM3 [8]: ~100 fold
- IC50 ([8]; mean ± S.D., n = 2): 19000 ± 3000 nM
- activity at 10 µM [8, 17]: 71%
- lag time to the onset of force ([9]; MC-LR 10 μM, p <0.05, n=3): increased
- kinetics of force development ([9]; pCa=9.0, MC-LR 10 μM, HS38 50 μM): markedly decreased
- inhibition at 10 µM [10]: 76%
- IC50 ([10]; mean ± S.D., n = 2): 200 ± 60 nM
- activity at 10 µM [10, 17]: 24%
- fold less potent than against DAPK1 and PIM3 [11]: ~100 fold
- IC50 ([11]; mean ± S.D., n = 2): 18000 ± 8000 nM
- activity at 10 µM [11, 17]: 64%
- fold less potent than against DAPK1 and PIM3 [12]: ~10 fold
- IC50 ([12]; mean ± S.D., n = 2): 1700 ± 100 nM
- activity at 10 µM [12, 17]: 23%
- MYPT1-T855 phosphorylation [13]: no significant effect
- inhibition at 10 µM [14]: 89%
- IC50 ([14]; kinome profiling): 200 nM
- activity at 10 µM [14, 17]: 11%
- contractile force development of isolated rat ileal smooth muscle [15]: attenuated
- Kd [16]: 19 nM
